Measurements as given in the RNAGym collection of RNA variant scans (doi:10.1093/nar/gkz1192).
The source gives no read counts; variants with many changes may rest on few reads.

B1: CPEB3 Ribozyme (parent)
chain: UAACAGGGGGCCACAGCAGAAGCGUUCACGUCGCAGCCCCUGUCAGAUUCUGGUGAAUCUGCGAAUUCUGCUGUAUAUCUC

Variants of: B1
Assay: self-cleavage, relative activity (ratio to wild type); higher = more cleavage; in vitro, sequencing
How it was run: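 For each CPEB3 ribozyme variant, relative activity is its cleaved/total read fraction divided by the unmutated ribozyme's. Barcoded error-prone PCR libraries were transcribed by T7 RNA polymerase (5 hours, 37°C) and held in DNase I for 15 min before an EDTA stop, with cleavage occurring throughout. Template-switching reverse transcription and Illumina sequencing were used to read the RNAs. A 5-read minimum applied, and results are the mean of three batches.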

Variant	self-cleavage
UAACGGGGGGCCACAGCAGAAGCGAUCACGUCGCAGCCACUGUCAGAUUCUGGUGAAUCUGCGACUGCUGCUGUAUAUCCC	0.06
UAACGGGGGACCGCAGCUGAAGCGUUCACGUCGCAGCCCCUGUCAGGUUCUGGUGAAUCUGCGAAUUCCGCUGUAUAUCUC	0.07
UAACGGGGGGCCACAGCAGAAGCAUUCACGUCGCGGCCCCUGUCCGAUUCUGGUGAAUCUGCGAAUCCUGCUGUAUUUCCC	0.11
UAACGGGGGGCCACAGCAGAAGCGUUCACGUCACAGCCCUUGUCAGAUUCAGGUGAAUCUGCGGAUUCUGGUGUAUACCUC	0.03
UAACGGGGAGCCACAGCAGAAGCGUUCACGUCGCAGUCCCUGCCAGAUUCUGGUGAAUCUGCGGAUUCUGCUGUAUAUCUC	0.19
UAACGGCGGGCCACAGCAGAAGCGUUCACGUCGCAGCCCCUGCCAGAUUCUGGAGGAUCUGCGAAUUCUGCAGUAUAUCUC	0.2
UAACGGGGGGCCACAGCAGAAGCGUUCACGUCGCAGCCCCUGUCAGAUUCUGAUGAGUCUGCGUAUUCUGCUGUAUAUCUC	0.26
UAACGGCGGGCCACAGCAGAAGCGUUCACGUCGCUGCCCCUGUCAGAUUCUGGUGAAUCUGCGAAUUCUGCCGUAUAUCUC	0.09
UAACGGGGGGCCACAGCAGAAGCGAUCACGUCGCAGCCCCUGUCAGAUUCUGGUGAAUCUGCGAAUUCUGCAGUAUAUCUC	0.43
UAACGGGGGGCCACAGCAGAAGCGAUCACGUCGCGGCCCACGUCAGAUUCUGGUGAAUCUGCGAAUUCUGCUGUAUAUCUC	0.32
UAACGUGGGGCCACAGCAGAAGCGUUCACGUCGCAGCCCCUGUCAGAUUCUGGUGAAUUUGCGAAUUCUGCUGUAUAUCGC	0.07
UAACGGGGAGCCACAGCAGAAGCGUUCACGUCGCAGCCCCUGUCAGAUUCUGGUGAAUCUGCGAACUCUGCUGUAUAUCUC	0.57
UAACGGGUGGCCACAGCAGGAGCGUUCACGUCGCAGCCCCUGUCAGAUUCUGGUGAAUCUGCGAAUUCUGCUGUAUAUCUC	0.37
UAACGCGGGGCCACAGCAGAAGCGCUCACCUCGCAGCCCCUGUCAGAUUCUGGUGAAUCUGCGAAUACUGCUGUAGAUCUC	0.19
UAACGGGGGGCCACAGCAGAAGCGUUCACGUCACAGCCCCUGUCAGAUUCUGGAGAAUCCGCGAAUUCUGCUGUAUAUCUC	0.1
UAACGGGAGGCCACAGCAGAAGCGCUCACGUCGCAGCCCCUGUCAGAUUCUGGUGAAUCUGCGAAUUCUGCUGGAUAUCUC	0.73
UAACGCGGGGCCACAGCAGAAGCGUUCACGUCGCAGCCCCUGUCAGAUUCUGGUGAAUCUACGAAUUCUGCUGCGUAUCUC	0.4

Variant	self-cleavage
UAACGGGAGGCCAUAGCAGAAGCGUUCACGUCGCAGCCCCUGUCAGAUUCUGGUGAAUCUGCGAAUUCUGCUGUAUAACUC	0.19
UAACGUGGGGCCACAGCAGAAGCGUUCACGUCGCAGCCCCAGUCAGAUUCUGGUGAAUCUGCGAAUUCUGCUGUAUAUCUC	0.36
UAACGAGGGGCCACAGCAGAAGCGCUCACGUAGCAGCCCCUGUCAGAUUCUGGUGAAUCUGCGAAUUCUGCUGUAUAUCAC	0.09
UAACGGGGGACCACAGCAGAAGCGUUUACGACGCAGCCCCUGUCAGAUUCUGGUGAAUCUGCGGAUUCUGCUGUAUAUCUC	0.1
UAACGGGGGGCCACAGCAGAAGCGUUCACGUCGCAGCCCCUAUCAGAUUCUGGUGAAUCUGCGAAUUCUGCUGUAUAUCUA	0.59
UAACGCGGGGCCACAGCAGAAGCGUUCACGUCGCAGCCCCUGUCAGAUUCUGGUGGAUCUGCGAAUUCUGCUGUAUACCUC	0.65
UAACGUGGGCCCACAGCAGAUGCGUUCACGUCGCAGCCCCUGUCAGAUUCUGGUGAAUCUGCGAAUUCUGCUGUAUAUCUC	0.05
UAACGGGGUGCCACAGCAGAAGCGCUCACGUCGCAGCCCCUGUCAGAUUCUGGUGAAUCUGCGAAUUCUGCAGUAUAUCUC	0.23
UAACGGGGAGCCACAGCAGAAGCGAUUGCGUCGCAGCCCCUGUCAGAUUCUGGAGAACCUGCGAAUUCUGCUGUAUAUCUC	0.06
UAACGGGGAGCCUCAGCAGAAGCGUUCACGUCGCAGCCCCUGUCAGAUUCUGGAGAAUCUGCGAAUUCUGCUGUAUAUCUC	0.39
UAACGGGUGGCCACAGCAGAAGCGUUCACGUCGCAGCCCCUGUCAGAUUCUGGUGAACCUGCGGAUUCUGCAGUAUAUCUC	0.07
UAACGGGAGGCCACAGCAGAAGCGUUCACGGCGCAGCACCUGUCAGAUUCUGGUGGAUCUGCGAAUUCUGCCGUAUAGCUC	0.03
UAACGGCGGGCCACAGCAGAAGCGUUCACGUCGCAGCCCCUGUCAGGUUCUGGUGAAUCUGCGAAUUCUGCUGUAUAUCUC	0.28
UAACGGGGGGCCACAGCAGAAGCACUCACGGCACAGCCCCUGUCAGAUUCUGGUGAAUCUGCGAAUUCUGCUGUAUAUCUC	0.15
UAACGGGGGACCACAGCAUAAGCGUUCACGUCGCAGCCCCUGUCAGAUUCUGGUGGAUCGGCGAAUUCUGCUGUAUAGCUC	0.04
UAACGGGGGGCCACAGCAGAAGCGCUCUCGUCGCAGCCCCUGUCAGAUACUGGUGAAUCUGCGAAUUCUGCUGUAUAUCUC	0.12
UAACGUGGGACCACAGCAGAAGCGUUCACGUCGCAGCCCCUGUCAGACUCUGGUGAAUCUGCGAAUUCUGCAGCAUAUCUC	0.31
